Screen size: about 48,000 compounds; about 120 (0.25%) were called active. About 4% were inconclusive and are not listed. Calls follow the shape of the dose curve; as a rule, active = well fitted activation curve with a large enough effect; inconclusive = small, poorly fitted or top-dose-only effect, or another doubt; inactive = no such curve, though single readings can be large or run the other way. Some of the results follow.

Data on 46 compounds can be found in PubChem BioAssay AID1508624 (National Center for Advancing Translational Sciences (NCATS), 2021).

A short description of the test: Primary qHTS for Identification of Small Molecule Activators of Huntingtin-Antisense Promoter Activity. Also: nearly all actives have a fitted effect of over 55% in size. The settings on record: HEK293 HTT-AS promoter firefly luciferase reporter, 24 h; series mostly up to 57.5 µM; activity change, positive = activation: at the top concentration. The procedure, abridged:
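Quantitative HTS used concentration series of up to 57.5 uM final on HEK293 luciferase reporter cells, 24 h at 37 degrees C. Readout was Dual-Glo firefly luminescence.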
Consider `Cc1ccc(C)c(-c2[nH]c3c(c2-c2c(-n4cccc4)n(C)c(=O)n(C)c2=O)c(=O)n(C)c(=O)n3C)c1`, for which the “activity change, positive = activation” value is inactive: -21.2%. The figure for `COc1ccc(OC)c(NC(=O)c2cc(=O)c3c(C)cc(C)cc3o2)c1` is inactive: 1.28% [at 11.5 µM, percent change from vehicle, -100% = no light]; for `CCOC(=O)c1c(NC(=O)c2cc(Cl)ccc2Cl)sc2c1CCCC2` it is inactive: -6.2%; for `Cc1ccc(CNc2cc(C)nc3nc(-c4cccc(C)c4)nn23)cc1` it is inactive: 5.39%. The figure for `CN(C(=O)CSc1nc2ccc(NC(=O)COc3ccccc3)cc2s1)c1ccccc1` is inactive: -42.3%. Take `Cc1cccn2c(=O)c3cc(C(=O)Nc4ccc(Cl)c(Cl)c4)sc3nc12`: the “activity change, positive = activation” value was inactive: -4.71%. Consider `Cc1ccc(Nc2ccc(N3CCN(C(=O)c4ccc([N+](=O)[O-])cc4)CC3)nn2)cc1`, for which the “activity change, positive = activation” value was inactive: -8.07%.

Turning to `Cn1c(SCc2ccc(Br)cc2)nc2c([nH]c3ccccc32)c1=O`, the “activity change, positive = activation” value is inactive: -19.3%. Take `Cc1ccc(S(=O)(=O)NCCc2csc(-c3cccc(F)c3)n2)cc1`: the “activity change, positive = activation” value is inactive: -30.1%. `CCOC(=O)c1cccc(NS(=O)(=O)c2cc3c(cc2C)NC(=O)CO3)c1`: the “activity change, positive = activation” value was inactive: -21.3%. The figure for `O=C(c1ccc(Nc2nc3ccccc3n3nnnc23)cc1)N1CCN(c2cccc(C(F)(F)F)c2)CC1` is inactive: 2.75%. On to `Cc1ccc(NC(=O)CN2C(=O)CC(C)Sc3ccccc32)c(C)c1` (stereo unspecified), for which the “activity change, positive = activation” value is inactive: -18.8%. The figure for `Cc1ccc(C)c(NS(=O)(=O)c2cc3c4c(c2)C(C)C(=O)N4CCC3)c1` (stereo unspecified) is inactive: -15.2%. The figure for `CCNC(=O)Cn1nc(C)n2c(cc3c(OC)cccc32)c1=O` is inactive: -0.929%.

Turning to `Cc1ccc(NC(=O)C2CCN(c3nnc(C)c4c(C)n(-c5ccccc5)nc34)CC2)cc1Cl`, the “activity change, positive = activation” value is inactive: -4.71%. `Cc1c(Cl)cccc1-n1ncc(C(=O)N2CCOCC2)c1C1CCN(C(=O)OC(C)(C)C)CC1`: the “activity change, positive = activation” value was inactive: 0%. Consider `Cc1cc(C)n(C(C)CC(=O)NCc2ccc(Cl)cc2)n1` (stereo unspecified), for which the “activity change, positive = activation” value is inactive: -11.4%. In the case of `Cc1ccc(OCC(=O)OCc2cc(=O)n3nc(C4CC4)sc3n2)cc1`, the “activity change, positive = activation” value is inactive: -17%. The figure for `CCc1ccccc1NC(=O)CC1Sc2ccc(C(F)(F)F)cc2NC1=O` (stereo unspecified) is inactive: -13.1%; for `CCCCSc1nnc2c(n1)OC(C)N(C(C)=O)c1ccccc1-2` (stereo unspecified) it is inactive: 10.4% [at 11.5 µM, percent change from vehicle, -100% = no light]; for `COc1ccc(CCNC(=O)C2COc3ccccc3C2)cc1OC` (stereo unspecified) it is inactive: 14.5%. On to `COc1ccc(CCNC(=O)Cc2c(C)c3cc4c(C)coc4c(C)c3oc2=O)cc1`, for which the “activity change, positive = activation” value is inactive: -15.8%. On to `Cn1c(Oc2ccc(Cl)cc2)nc2c1c(=O)n(Cc1ccc(F)cc1)c(=O)n2C`, for which the “activity change, positive = activation” value was inactive: -3.44%. On to `COc1ccc(C(=O)NC(c2ccc(Cl)cc2)c2cc(Cl)c3cccnc3c2O)cc1` (stereo unspecified), for which the “activity change, positive = activation” value is inactive: -58.9%. Consider `O=C(NCCc1ccccc1)c1ccc2c(c1)N(Cc1ccc(F)cc1)C(=O)c1ccccc1S2`, for which the “activity change, positive = activation” value is inactive: -9.74%. Regarding `CC(=O)C1=C(O)C=C2Oc3c(C(C)=O)c(O)c(C)c(O)c3C2(C)C1=O` (stereo unspecified), the “activity change, positive = activation” value was inactive: 5.48%.

In the case of `Cc1cc(C)cc(NC(=O)CCC(=O)N2CCSc3ccccc32)c1`, the “activity change, positive = activation” value was inactive: -31.1%. On to `CCCCN(CC)C(=O)c1cc2c(=O)n3cccc(C)c3nc2s1`, for which the “activity change, positive = activation” value was inactive: 12.2%. In the case of `COc1cc(Cl)c(C)cc1NC(=O)c1cnc(N2CCOCC2)c2ccccc12`, the “activity change, positive = activation” value is inactive: -8.89%.

On to `Cc1cc(Nc2nc(N[C@@H](C)c3ncc(F)cn3)ncc2Cl)n[nH]1`, for which the “activity change, positive = activation” value is inactive: -36.2%. For the compound `COc1ccc2c(CNCc3cccs3)c(C(=O)O)n(Cc3ccccc3F)c2c1`, the “activity change, positive = activation” value was inactive: -18.3%. Regarding `COc1ccc(CC(=O)N2CCc3cc(OC)c(OC)cc3C2COc2ccc(F)cc2)cc1OC` (stereo unspecified), the “activity change, positive = activation” value is inactive: -16.7%. For the compound `O=C(NCc1ccccc1)c1ccc2oc(=O)n(Cc3ccccc3)c2c1`, the “activity change, positive = activation” value was inactive: -26.8%. With `CN(C)c1ccc(NC(=O)CSC2=Nc3ccccc3C3=NC(CCC(=O)NCc4cccs4)C(=O)N23)cc1` (stereo unspecified), the “activity change, positive = activation” value was inactive: -32.8%. For the compound `Cc1ccc(C(=O)C(C)CN2CCCCC2)cc1` (stereo unspecified), the “activity change, positive = activation” value is inactive: -9.63%. Consider `Cn1c(SCC(=O)Nc2nc3ccccc3s2)ncc(C(=O)Nc2ccc(F)cc2)c1=O`, for which the “activity change, positive = activation” value was inactive: 8.1%. The figure for `COc1cccc(C(=O)Nc2cccc(C(=O)OCc3cc(=O)n4c(C)csc4n3)c2)c1` is inactive: -11.4%; for `NS(=O)(=O)c1ccc2nc(NC(=O)COc3ccc(Cl)cc3Cl)sc2c1` it is inactive: -15.7%; for `COCCNC(=O)c1ccc2c(c1)N=C(C)c1cc(C)ccc1S2` it is inactive: -31.8%. Take `CCOC(=O)COc1ccc(C)cc1C(=O)c1ccn2nc(-c3ccc(F)cc3)cc2n1`: the “activity change, positive = activation” value was inactive: -1.29%. As for `COCCCNC(=O)C1CCN(c2cc(C)nc3c(-c4ccc(Cl)cc4)c(C)nn23)CC1`, the “activity change, positive = activation” value is inactive: -17%. The figure for `CCN(CC)CCCNC(=O)c1ccc2c(Cl)c3c(nc2c1)CCCC3` is inactive: -12.8%; for `CCOC(=O)Cn1c(=O)n(-c2ccccc2OC)c2nc(-c3ccc(C(C)C)cc3)nc(C(N)=O)c21` it is inactive: -16.9%; for `CC(C)CC1Nc2ccc(C(=O)NCCCOC(C)C)cc2NC1=O` (stereo unspecified) it is inactive: -18.8%.

`CCc1nn2c(=O)cc(COC(=O)C(CC)c3ccccc3)nc2s1` (stereo unspecified): the “activity change, positive = activation” value was inactive: -5.72%. On to `CCOC(=O)c1c(Oc2ccc(C(C)=O)cc2)nnc(-c2ccccc2)c1-c1ccccc1`, for which the “activity change, positive = activation” value was inactive: -27.1%.
